Scores with a large standard error are left out. Not listed are two conditions whose scores span a narrow range. In variant names, del marks residues removed and ins residues inserted between the two positions. For some of these results: The data file names ogerin without a concentration.
B1: GPR68, Q15743 (parent)
chain: MGNITADNSSMSCTIDHTIHQTLAPVVYVTVLVVGFPANCLSLYFGYLQIKARNELGVYLCNLTVADLFYICSLPFWLQYVLQHDNWSHGDLSCQVCGILLYENIYISVGFLCCISVDRYLAVAHPFRFHQFRTLKAAVGVSVVIWAKELLTSIYFLMHEEVIEDENQHRVCFEHYPIQAWQRAINYYRFLVGFLFPICLLLASYQGILRAVRRSHGTQKSRKDQIQRLVLSTVVIFLACFLPYHVLLLVRSVWEASCDFAKGVFNAYHFSLLLTSFNCVADPVLYCFVSETTHRDLARLRGACLAFLTCSRTGRAREAYPLGAPEASGKSGAQGEEPELLTKLHPAFQTPNSPGSGGFPTGRLA

Legend:
[1] = variants of: B1; assay: cAMP reporter score (Enrich2 score, wild type = 0); higher = more signal; HEK293T, FACS bins
[2] = variants of: B1; assay: surface expression score (Enrich2 score, wild type = 0); higher = more signal; HEK293T, FACS bins

Variant	cAMP reporter score ([1]; pH 5.5)	cAMP reporter score ([1]; pH 6)	cAMP reporter score ([1]; pH 6, modulator: ogerin)	cAMP reporter score ([1]; pH 6.5, modulator: ogerin)	surface expression score [2]
K136_A138del	-0.771	-0.841	-0.703	-1.09	-1.93
K136del	-1.24	-1.01	-0.625	-1	-2.25
A137_A138insG	-1.98	-1.3	-2.26	-0.594	-2.72
A137_A138insGSG	-1.37	–	-1.27	-2.06	-2.35
A137del	-0.862	-0.181	-3.03	-1.3	0.738
A138C	-1.43	-1.18	-0.671	-1.36	-2.53
A138D	-1.07	-1.18	-1.56	-1.26	-2.03
A138E	-0.09	-0.459	–	–	–
A138F	-0.776	-0.392	-0.642	-1.52	-2.55
A138G	-1.2	-0.947	-1.35	-1.11	-2.1
A138I	-0.676	-1.3	–	–	-1.78
A138N	-2.06	–	-1.37	-1.78	-2.12
A138P	-2.09	–	–	-0.472	-0.737
A138Q	-1.63	0.264	-0.642	-0.444	0.473
A138R	-0.418	-0.822	–	-0.432	–
A138S	-0.355	0.027	-0.781	-0.803	-1.19
A138V	-1.3	–	–	-0.51	-1.24
A138W	-2.5	-1.18	-2.14	-0.595	-2.45
A138Y	-2.9	-1.34	-1.56	-0.859	-1.5
A138_V139insG	-1.94	-1.26	-2.55	-1.51	-2.19
V139_G140del	-1.4	-1.36	-1.48	-1.12	-2.79
V139_V141del	-1.79	-0.457	-1.99	-1.32	-2.74

Variant	cAMP reporter score ([1]; pH 5.5)	cAMP reporter score ([1]; pH 6)	cAMP reporter score ([1]; pH 6, modulator: ogerin)	cAMP reporter score ([1]; pH 6.5, modulator: ogerin)	surface expression score [2]
G140_S142del	-1.2	-1.07	-1.91	-1.22	-2.55
G140_V141del	-2.12	-1.25	-1.67	-1.38	-2.52
G140_V141insG	-2.07	-1.12	-2.15	-1.21	-2.78
G140_V141insGS	-1.86	-1.24	-1.53	-1.45	-2.52
G140del	-2.09	-1.42	-1.73	-1.38	-2.54
V141_S142del	-1.46	-0.935	-1.96	-1.39	-2.95
S142_V143insG	-0.948	–	-0.76	-0.643	–
S142_V143insGS	-1.27	-0.733	-1.38	-1.13	-1.59
V143_V144insG	-1.68	-0.919	-2.21	-1.52	-2.44
V143_V144insGS	-1.83	-0.876	-1.58	-1.36	-2.14
V144A	-0.011	0.081	0.096	0.395	-0.231
V144C	-0.751	-0.7	-0.719	-0.597	-1.01
V144D	-2.38	-1.2	-1.21	-0.658	-2.05
V144E	-1.39	-1.36	-1.57	-0.983	-2.09
V144F	0.765	1.53	0.517	2.05	0.863
V144G	0.914	0.007	0.546	0.513	0.323
V144H	-1.34	-1.07	-1.96	-1.44	-1.76
V144I	0.846	0.382	0.574	0.334	0.8
V144K	-1.07	-1.09	-0.764	-1.42	–
V144L	0.509	1.58	0.5	1.31	0.298
V144M	-0.349	0.29	-0.522	-0.086	-0.259
V144Q	-1.3	-1.11	-2.29	-1.33	-3.19

Variant	cAMP reporter score ([1]; pH 5.5)	cAMP reporter score ([1]; pH 6)	cAMP reporter score ([1]; pH 6, modulator: ogerin)	cAMP reporter score ([1]; pH 6.5, modulator: ogerin)	surface expression score [2]
V144S	-0.312	0.097	-0.081	0.004	-1.09
V144T	-0.403	-0.084	–	-3.21	-0.967
V144W	-0.505	-0.428	0.091	-0.22	–
V144Y	-0.338	-1.01	-0.5	-0.846	-2.18
V144_I145insGS	-0.487	-0.229	-0.813	-1.04	-2.87
V144_I145insGSG	-1.8	-0.375	-1.27	-1.88	-2.16
V144_W146del	-0.625	-1.33	-1.58	-0.843	-2.13
I145_W146insGSG	-1.3	-0.898	-1.38	-1.04	-2.63
W146_A147insG	-1.19	–	-0.507	–	–
W146del	-1.31	-1.05	-1.44	-1.71	-2.35
A147C	1.46	0.609	1.85	1.57	1.5
A147D	-1.51	-0.49	–	-1.24	-3.24
A147E	-0.957	-1.45	–	–	–
A147F	0.801	–	-0.6	-1.34	0.035
A147G	-0.202	-0.627	0.497	-1.77	-0.779
A147H	-1.39	-0.919	-1.61	-1.38	-2.42
A147I	0.795	0.132	1.19	-0.247	0.786
A147K	-1.88	-0.657	-0.469	-1.9	-1.78
A147L	-0.267	-0.292	0.131	0.387	-0.815
A147M	-0.525	-0.573	0.037	0.492	–
A147N	0.548	-1.51	-1.57	-0.937	-0.609

Reference: the GPR68 mutational scans of Howard et al. (2025)
